According to PubChem BioAssay AID1963576 (National Center for Advancing Translational Sciences (NCATS), 2024):
In all, about 46,000 compounds went through this assay and about 60 (0.1%) were called active. This list was built around the results that the source calls inconclusive (neither active nor inactive); the mix of calls is not that of the screen. Calls follow the shape of the dose curve; as a rule, active = well fitted inhibition curve with a large enough effect; inconclusive = small, poorly fitted or top-dose-only effect; inactive = no such curve, though single readings can be large or run the other way. No potency is given beside an inconclusive call; the fits are too rough.

assay: Primary qHTS assay for Inhibitors of ovarian cancer metastasis using an organotypic tumor microenvironment (TME) model.; also: nearly all actives have a fitted effect of over 65% in size;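 as to potency: count of GFP cancer cells still attached after washing and fixation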; conditions: SKOV3ip1-GFP adhesion/invasion on 3D omental model, fluorescence; series mostly up to 45.8 µM
Summary of the method: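 Adhesion/invasion was scored as fixed GFP-labeled SKOV3ip1 cell counts (488/509 nm), normalized to DMSO and tomatine controls. Cancer cells in serum-free medium, with four compound doses (0.36-46 umol/L), sat 2 hr at RT then 16 hr at 37 C on a 48 hr fibroblast/mesothelial/ECM culture.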
Potency is read from the fitted curve at half-maximal effect; tags tell the direction and shape of the fitted curve.

Structure (SMILES) | Potency
Nc1c(C(=O)NCc2ccccc2)nnn1Cc1cccc(Br)c1 | inactive
C=C1C(=O)O[C@H]2[C@@H]1CCC(C)=CCC[C@@]1(C)O[C@@H]21 | inconclusive [inhibitor, single point]
Cc1ccc(O)c(NC(=O)CCS(=O)(=O)c2nc(-c3ccc4c(c3)OCO4)cc(C(F)(F)F)n2)c1 | inconclusive [inhibitor, single point]
CCCCN1C(=O)C(O)(c2c(C)[nH]c3ccccc23)c2ccccc21 (stereo not drawn) | inactive
O=C(NC1CCCCC1)c1ccc(CSc2nc3cccnc3n2Cc2ccccc2F)cc1 | inconclusive [inhibitor, single point]
Oc1ccc(NCc2ccc(OCc3ccccc3Cl)cc2)cc1 | inactive
COc1ccc(CCN2CCC(CNC(=O)c3cnn(-c4ccccc4)c3C3CCN(C(=O)OC(C)(C)C)CC3)CC2)cc1 | inconclusive [inhibitor, single point]
CCOc1ccc(C2C(C(=O)Nc3ccc(Cl)cc3)=C(C)Nc3nc(C(F)(F)F)nn32)cc1 (stereo not drawn) | inconclusive [inhibitor, single point]
Fc1ccccc1-n1ncc2c1ncn1nc(Cc3ccccc3)nc21 | inconclusive [inhibitor, single point]
O=C(CN1C(=O)C2(SCC(=O)N2c2ccc(F)c(F)c2)c2ccccc21)Nc1ccccc1F (stereo not drawn) | inconclusive [inhibitor, single point]
COc1ccc(N2CCN(CCCNC(=O)Nc3ccccc3Cl)CC2)cc1 | inactive
O=C(Nc1cccc(-c2nc3ncccc3o2)c1)c1ccc(-c2cccc(Cl)c2Cl)o1 | inconclusive [inhibitor, single point]
COC(=O)c1c(SCC(=O)Nc2cccc(C(F)(F)F)c2)[nH]c2ccccc2c1=O | inactive
CC(C)NC(=O)Cn1ncn2c(cc3cc(F)ccc32)c1=O | inconclusive [inhibitor, single point]
CC(C)(C)OC(=O)N1CCC(c2c(C(=O)NCCN3CCOCC3)cnn2-c2ccccc2)CC1 | inconclusive [inhibitor, single point]
CCc1ccc(-n2c(=O)c3cccnc3n2CC(=O)N(CC)c2cccc(C)c2)cc1 | inconclusive [inhibitor, single point]
CCOC(=O)[C@H](CCc1ccccc1)N[C@@H](C)C(=O)N1[C@@H](C(=O)O)C[C@H]2CCC[C@@H]21 | inconclusive [inhibitor, single point]
COC(=O)c1c(NC(=O)c2ccc(S(=O)(=O)N3CCCCC3)cc2)sc2c1CCN(C)C2 | inconclusive [inhibitor, single point]
COc1ccc(NC(=O)c2c(C)oc3ccc(O)c(CN4CCCC(C)C4)c23)cc1Cl (stereo not drawn) | inconclusive [inhibitor, single point]
Cc1cccc(N2CCN(S(=O)(=O)c3c(C)[nH]c(=O)[nH]c3=O)CC2)c1C | inconclusive [inhibitor, single point]
Cc1ccc(NCc2cccn2-c2nnc(N3CCC(C(=O)NCCc4ccccc4)CC3)s2)cc1 | inconclusive [inhibitor, single point]

Structure (SMILES) | Potency
CCCCC(CC)CNC(=O)c1ccc(Cn2c(=O)[nH]c3cc(OC)c(OC)cc3c2=O)cc1 (stereo not drawn) | inactive
COc1cccc(NC(=O)C2CC(=O)N(c3ccc(Br)cc3)C2)c1 (stereo not drawn) | inconclusive [inhibitor, single point]
CCCSc1ncc(Cl)c(C(=O)Nc2ccc(S(=O)(=O)N3CCCCC3C)cc2)n1 (stereo not drawn) | inactive
Cc1ccc(NS(=O)(=O)c2cn(C)c(C)n2)c(Br)c1 | inactive
O=C(c1cc2ccc3cccnc3c2[nH]1)N1CCN(c2ccc(Cl)cc2)CC1 | inactive
Cc1ccc(NC(=O)CSc2ncnc3c2sc2ccccc23)cc1C | inconclusive [inhibitor, single point]
CCN(CC)c1ccc(NC(=O)c2cc(S(=O)(=O)N3CCc4ccccc43)cn2C)c(C)c1 | inconclusive [inhibitor, single point]
Cc1cccc(Cn2c(SCc3ccc(C(=O)NC4CCCCC4)cc3)nc3cccnc32)c1 | inconclusive [inhibitor, single point]
CCC(=O)N1CCCc2cc(S(=O)(=O)Nc3ccc(C)c(C)c3)ccc21 | inconclusive [inhibitor, single point]
Cc1ccc2c(c1)NC(=O)C(CC(=O)Nc1cc(Cl)ccc1C)O2 (stereo not drawn) | inconclusive [inhibitor, single point]
O=C(CSc1nc(-c2ccccc2)no1)N1CCN(c2ccccc2F)CC1 | inactive
COc1cccc(-c2ccc3c(N)c(C(=O)c4ccc(Cl)cc4)sc3n2)c1 | inconclusive [inhibitor, single point]
Cc1cccc(C)c1Nc1sc(C(=O)c2ccccc2)c(N)c1C(=O)Nc1ccc(F)cc1 | inconclusive [inhibitor, single point]
COc1ccc(F)cc1S(=O)(=O)NCCc1sc2nc(-c3ccc(F)cc3)nn2c1C | inconclusive [inhibitor, single point]
CCC(=O)N1CCc2cc(Br)cc(S(=O)(=O)N3CCCC(C(=O)N(C)c4ccc(Br)cc4)C3)c21 (stereo not drawn) | inactive
CSc1ccc(CNC(=O)c2ccc(NC(=O)c3nsc4ccccc34)cc2)cc1 | inconclusive [inhibitor, single point]
Cc1ccc(C(=O)N(CCCN)[C@@H](c2oc3cc(Cl)ccc3c(=O)c2Cc2ccccc2)C(C)C)cc1 | inconclusive [inhibitor, single point]
COc1cccc(CNC(=O)CSc2c3c(nc4cc(Cl)ccc24)CCCC3)c1 | inconclusive [inhibitor, single point]
O=C(Nc1ccc2oc(-c3cccnc3)nc2c1)c1ccc(-c2ccc(OC(F)(F)F)cc2)o1 | inactive
CCN(C(=O)c1cc2c(=O)oc3ccc(C)cc3c2s1)c1cc(OC)ccc1OC | inconclusive [inhibitor, single point]
CCC1CCCCN1CCCNC(=O)c1ccc2c(c1)N(Cc1ccccc1)C(=O)c1ccccc1S2(=O)=O (stereo not drawn) | inconclusive [inhibitor, single point]

Structure (SMILES) | Potency
COc1ccc(CCNC(=O)CCCCn2c(=O)c3ccccc3n(Cc3ccc(F)cc3Cl)c2=O)cc1OC | inconclusive [inhibitor, single point]
Cc1c(-c2nsc(NC(=O)c3cccs3)n2)nnn1-c1ccc(Br)cc1 | inconclusive [inhibitor, partial curve, poor fit]
Cc1ccc(C)c(NC(=O)CN(CCc2ccccc2)S(=O)(=O)c2ccccc2)c1 | inactive
O=C(NCCSc1c(-c2ccc(F)cc2)[nH]c2ccccc12)c1ccc(S(=O)(=O)N2CCOCC2)cc1 | inconclusive [inhibitor, full curve]
COc1ccc(-c2noc(CSc3nnc(C)n3-c3ccc(C)cc3)n2)cc1 | inactive
CCCCN(C)CC(O)Cn1cc(/C=C/C(=O)c2ccc(OCC)cc2)c2ccccc21 (stereo not drawn) | inconclusive [inhibitor, single point]
Cc1ccc2nc(NCCc3ccc(Cl)cc3)c3nncn3c2c1 | inconclusive [inhibitor, single point]
COc1cccc(-c2cn3c(n2)sc2cc(C(=O)NCCc4ccccc4)ccc23)c1 | inconclusive [inhibitor, partial curve, poor fit]
CCn1c(=O)c2c(nc(C=Cc3ccc(OC)c(OC)c3)n2C)n(CC)c1=O | inactive
CC(=O)c1ccc(NC(=O)c2nn(C)c3c2CS(=O)(=O)c2ccccc2-3)cc1 | inactive
Cc1cc(F)ccc1NC(=O)CN1C(=O)CCc2cc(S(=O)(=O)N3CCOCC3)ccc21 | inconclusive [inhibitor, single point]
COc1ccc(-c2cc(C(=O)NCCc3ccccc3)c3c(-c4ccccc4)[nH]nc3n2)cc1 | inactive
CCOc1cc(CNCCSc2nnnn2C)cc(Cl)c1OCc1ccc(Cl)cc1 | inconclusive [inhibitor, single point]
CSc1ccc(CCNC(=O)CCc2c(C)nc3c4cccnc4nn3c2C)cc1 | inconclusive [inhibitor, partial curve, poor fit]
COc1ccc(N2CCN(C(=O)c3c4c(nc5ccccc35)C(=O)N(C3CCCCC3)C4)CC2)cc1 | inactive
COc1cccc(N2CC(NC(=O)C3CCCC3)CC2=O)c1 (stereo not drawn) | inactive
COc1ccc(Cl)cc1NC(=O)Cn1nnc(C(=O)NCc2cccs2)c1N | inconclusive [inhibitor, partial curve]
O=C(Nc1ccc2nc(SCC(=O)N3CCCC3)sc2c1)c1cccc(F)c1 | inconclusive [inhibitor, single point]
O=C(NCCCN1CCCCC1)c1ccc2c(c1)sc1nc(-c3ccc(F)cc3)cn12 | inconclusive [inhibitor, partial curve, poor fit]
COc1ccc2c(Sc3ccccc3)c(C(=O)N3CCC(C)CC3)[nH]c2c1 | inconclusive [inhibitor, single point]
COc1cccc(CNC(=O)C2CCN(C(=O)c3sccc3-n3cccc3)CC2)c1 | inconclusive [inhibitor, single point]
